Assay results as given in the supplement of paper PMC3334620.
Whole data set: some 33,000 sequences, median “E-score (-0.5 to 0.5)” near -0.04, cut for the highest 2% near 0.36. This is one part of the list.

These sequences were tested against T1, Hmlalpha2 (UniProt P0CY09) (assay: PBM E-score (8-mer binding enrichment) (E-score (-0.5 to 0.5)); higher = stronger / more preferred TF binding; most listed sequences are background and not binding sites). Settings: protein concentration: 200 nM; construct: GST-full length.
T1 sequence: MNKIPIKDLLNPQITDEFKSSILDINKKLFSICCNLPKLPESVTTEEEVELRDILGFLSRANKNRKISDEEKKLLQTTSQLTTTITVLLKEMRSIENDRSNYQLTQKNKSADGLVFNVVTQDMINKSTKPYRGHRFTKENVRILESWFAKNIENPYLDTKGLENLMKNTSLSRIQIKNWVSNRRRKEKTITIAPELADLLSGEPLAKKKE
Method in brief: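 The E-score, a modified Wilcoxon-Mann-Whitney statistic, was computed by the Universal PBM Analysis Suite for every ungapped eight-base word pooled with its reverse complement. Scans behind it were normalised with masliner after bound GST-tagged yeast transcription factors were detected with fluorescent anti-GST. The proteins, at about 100-200 nM, had been applied to universal all-10-mer Agilent arrays made double-stranded by primer extension.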

Sequence | PBM E-score
AAGTTTCC | 0.0351
TTGCGAAA | 0.261
GGAGTGCA | -0.144
AGTGAGCG | -0.184
GTAAATAC | 0.356
AAGCAAGC | -0.0851
GAATGAGA | -0.0838
AGCATGGG | -0.103
AGAAATAC | 0.0857
AGGATACG | -0.054
AACAAATT | 0.3
CGATGTAG | 0.106
CTTTCTTC | -0.09
CTAACGGA | -0.0271
GGAACATA | 0.184
AGTATTTA | 0.209
AGCTAGCT | 0.0497
GAGGAGGC | -0.251
AACACGGT | 0.402
ATGGTAGA | 0.079
CTGAAACA | 0.135
CTTCAAAC | -0.0259
AGCTAGTA | 0.149
GCGATGAA | 0.0458
CGAGTAAG | -0.0179

Sequence | PBM E-score
CCTGTTTA | 0.0153
CACGTGGC | -0.0908
GGCCCACA | -0.204
GGACCACC | -0.146
CTTAAACC | -0.0586
GACAATCA | -0.0879
ACATGCAA | 0.398
ATCCGTAC | 0.0968
CGATGAAC | 0.0568
ACAAGTGG | 0.0906
CCTCGCGA | -0.207
AGGCGGTC | -0.191
ACCGGATC | -0.0211
GGACAAGA | -0.187
ATATTCAA | 0.0535
CCTAAGAA | 0.129
GTCCCCCA | -0.289
GCAATGCC | -0.181
CCACGTAA | 0.33
AACGATAC | 0.097
GCCGAAAC | -0.223
AATTAGAT | 0.201
GCATCGCA | -0.347
GATAGTCC | 0.0572
CCACTCCG | -0.269

Sequence | PBM E-score
GATTGAGA | 0.0728
AAGGTTGG | 0.0163
GTATTGGA | 0.0974
AAGCTACG | 0.0599
CTTAGTCA | -0.0996
AGACAAAG | -0.0171
CAGTAATC | -0.0416
AACTTTAT | 0.148
GCCATGTA | 0.457
TAATAACA | 0.387
ACGATCCA | 0.0206
ACTGACAT | 0.154
GGCTAAAA | -0.191
CCTCTAAC | -0.0966
AGACGAGA | -0.0304
ATAGATCC | -0.201
ATTTTACG | 0.31
CGAATGAG | -0.0828
GGGACGTA | 0.0861
AAAAGTGT | 0.0736
CTTGGGCA | -0.262
GCTCCCCA | -0.282
ATGGCACG | -0.0607
CAACATGG | 0.403
ACCCTGCA | 0.0038

Sequence | PBM E-score
ATAGATTC | 0.0476
ATACGTAT | 0.308
ATCGGCGA | -0.311
AACGATTA | 0.0718
CTGTAGCC | -0.219
ATTATGTC | 0.164
AAGCTTCC | -0.0602
GGGCAGGA | -0.109
TGTAGCAA | 0.202
GCTCACCA | -0.286
AATTACCA | 0.273
CGCTTACA | 0.287
GCCCATAA | -0.0824
GAGACTGA | -0.147
GAATCGAC | -0.0392
CTAACCTA | -0.0054
CTAAGTAG | 0.135
AGAATACC | 0.0773
AGTACCGG | -0.0577
GACCGGGC | -0.356
GAGGTCGC | -0.272
CGAGACTC | -0.134
TAGTTTAA | 0.261
AGTGGCCA | -0.0438
CATGCATG | 0.204

Sequence | PBM E-score
AACTCATT | -0.154
ACCGCCGT | -0.159
GCGTAGCA | 0.0478
TAACCCTA | 0.0393
CGTTAGGC | -0.0501
CAAAAAGA | 0.00302
CCCGCCAG | -0.0399
CTACGACA | -0.0195
ACCCAGAG | -0.283
CTCGGAGC | -0.196
AACCTACT | -0.071
CATTTCCG | -0.0392
ACCCCACA | -0.188
TAGTCTCA | -0.112
AAGGGTGC | -0.233
ATTACCGC | 0.0838
GTCACTAA | -0.0217
ATCAACCC | 0.144
GCTTCCCC | -0.252
AGGCGCGA | -0.00293
TCAAGGGA | -0.156
AGCTCCAA | 0.0488
CCTGGCAA | -0.184
GGCCTCGA | -0.0711
CACCGACC | -0.0911

Sequence | PBM E-score
CAAGCAAG | -0.0478
AGACCGCA | -0.132
ACTGCGAT | -0.157
AATGTTAA | 0.364
GGAGATCC | -0.228
TTGCAAAA | 0.0115
AATGTCTA | 0.219
CTAAGTTC | -0.06
AGGGCTGG | -0.192
AACATATA | 0.286
GACCCGTC | -0.296
CGGGGGGA | -0.394
CATTTGGA | 0.099
AGAGTTCA | -0.157
ATTACTAA | 0.262
GGGGGCCA | -0.324
ACCCATTC | -0.176
ATACTATG | 0.0473
ACATGCTG | 0.377
ATAATGGA | -0.11
GGCAAGTA | 0.196
AATAAAAC | 0.21
CATGATTC | -0.0314
ACACAACC | 0.305
GTCAGAAA | 0.00281

Sequence | PBM E-score
CGTGCAGC | 0.0274
GTATTCCA | 0.227
CGAAGTGC | 0.107
CCTAGGCG | -0.303
TTACTAAA | 0.261
GACGGGGC | -0.364
CAACGTTA | 0.226
AATTCACA | 0.317
CTACACAC | 0.391
CCCGTAGC | -0.202
AATAAGCG | -0.0762
CTTGCGCA | -0.0323
GTTACTCA | 0.214
CCGACGGC | 0.00516
CGGGATGC | -0.249
CGTGATGC | -0.176
GCGCATTA | 0.12
AGATCTTA | -0.026
CTTTGCGC | 0.0385
ATCAAGCG | -0.128
CATTTCGC | -0.0431
AAAATGAA | 0.131
